Among all 150,000 compounds or so, about 540 (0.36%) showed an effect of 50% or more. The list shows a part of the results.

This assay has as its system Plasmodium falciparum. The experiment in a line: Primary screen in NF54 nanoGlo assay, in single point, at 2uM, 72h; a lower Z score goes with more inhibition. The format is functional, Erythrocyte. The conditions noted are these: timepoint 72 hour.
In the case of `O=C(NCC1CCN([C@H]2CCOC2)CC1)c1ccccc1`, the “% Inhibition” value is -8% and the Z score turned out to be 0.94.
On the same counts, the results for `Cn1ccc(NC(=O)C(=O)N2CCC[C@H](NCc3ccccc3)C2)n1` are -7% and 0.93.
On to `COc1ccc(S(=O)(=O)[C@@H](CNC(=O)CC(C)C)c2cccnc2)cc1`, for which the “% Inhibition” value stood at 10% and the Z score is reported as -1.36.
Consider `COC[C@H]1CN(CC(=O)N(C)C)CC(C)(C)O1`, for which the “% Inhibition” value is reported as -17% and the Z score amounted to 2.46.
Taken in the same sequence, the figures for `CC(NC(=O)C1CCCN(C(=O)c2cccn2-c2cccnc2)C1)c1ccccc1` (centres undefined) were -1% and 0.22.
Take `N#Cc1cccc(C(=O)N2CCN(C[C@H]3CCOC3)CC2)c1`: the “% Inhibition” value is recorded as -10% and the Z score came to 1.1.
On to `Cc1noc(C)c1CCc1nc(CC(N)=O)nn1C1Cc2ccccc2C1`, for which the “% Inhibition” value is given as -3% and the Z score was 0.43.
Taken in the same sequence, the figures for `Cc1ccc(C(=O)NCc2ccnc(-n3ccnc3C)c2)c(O)c1` were -42% and 4.96.
For the molecule `Cc1ccc(CCn2ncn(C)c2=O)cc1`, the “% Inhibition” value is -3% and the Z score worked out at 0.58.
Taken in the same sequence, the figures for `CC(C)CC[C@](C)(O)CNC(=O)C(=O)Nc1cccc(F)c1F` were -13% and 2.44.
`O=C(NC1CCS(=O)(=O)CC1)[C@@H]1CCOc2ccc(Cl)cc21`: the “% Inhibition” value is on record as 0% and the Z score is -0.04.
On to `Cc1nc(C)n(C2CN(C(=O)Cc3ccc4cn[nH]c4c3)C2)n1`, for which the “% Inhibition” value is reported as -8% and the Z score worked out at 0.89.
On to `Cc1nc(C2CCN(C(=O)[C@H]3CC34CC4)CC2)[nH]c1C`, for which the “% Inhibition” value is on record as -3% and the Z score amounted to 0.32.
Turning to `CC[C@@H](C(=O)N1CCN(CC2CCC2)CC1)N(C)CC`, the “% Inhibition” value is listed as -4% and the Z score was 0.58.
Taken in the same sequence, the figures for `CC[C@H](NC(=O)c1ccc2nc(C)cn2c1)c1ccc(S(C)(=O)=O)cc1` were -9% and 1.86.
Turning to `Cc1noc(COc2ccc(C(=O)NC3CC3)cc2)n1`, the “% Inhibition” value was 0% and the Z score was -0.03.
For the molecule `CC(=O)N1N=C(c2cc(C)nc3ccccc23)O[C@H]1c1ccc2ccccc2c1`, the “% Inhibition” value was 3% and the Z score is recorded as -0.48.
Taken in the same sequence, the figures for `Cc1ccc2oc(-c3noc([C@@H]4C[C@H]5CC[C@@H]4O5)n3)cc2c1` were 3% and -0.49.
`C=C1CCC(NS(=O)(=O)c2ccc(-n3cccn3)cc2)CC1`: the “% Inhibition” value is listed as -4% and the Z score was 0.69.
On the same counts, the results for `CC1CCN(C(=O)Nc2cccc(C#N)c2)CC[S+]1[O-]` (centres undefined) are 10% and -1.33.
For the molecule `CC(=O)Nc1ccc(CNC(C)[C@H]2COC(C)(C)O2)cn1` (some centres undefined), the “% Inhibition” value amounted to 19% and the Z score was -2.39.
As to `CCOc1ccc(NCC(C)C)c(C(N)=O)c1`, the “% Inhibition” value is reported as 4% and the Z score was -0.51.
On to `O=C(N[C@H]1CN[C@H](C(=O)N2CCOCC2)C1)c1cccc(Cl)c1Cl`, for which the “% Inhibition” value is recorded as -4% and the Z score is 0.87.
Take `Cc1nnc(-c2ccc(=O)n(CC(=O)Nc3ccc(F)cc3)c2)o1`: the “% Inhibition” value came to 0% and the Z score turned out to be 0.02.
On to `Cc1nc(-c2cccc(NC(=O)CN3CCC[C@H]3c3nc4ccccc4s3)c2)cs1`, for which the “% Inhibition” value is -14% and the Z score was determined as 1.39.
Take `Cc1ccc(-c2nc(Oc3cccc(Cl)c3)nc(-c3ccc(C)cc3)n2)cc1`: the “% Inhibition” value is listed as -9% and the Z score was 1.79.
Take `CC(C)Oc1ccc(NC(=O)NCc2ccc3cncn3c2)nn1`: the “% Inhibition” value was -4% and the Z score was found to be 0.55.
In the case of `CC1=C(C(=O)Nc2ccccc2)[C@H](c2ccc(Cl)cc2)c2c(n(C)c(=O)n(C)c2=O)N1`, the “% Inhibition” value is on record as -3% and the Z score came to 0.36.
Regarding `Cc1ccccc1OCC(=O)NCc1cc(-c2cccs2)nn1C`, the “% Inhibition” value was -18% and the Z score is 2.34.
On to `Cc1ccnn1CCC(=O)N1C[C@@H]2CC[C@H]1CN(S(=O)(=O)N(C)C)C2`, for which the “% Inhibition” value is -9% and the Z score came to 1.86.
On to `Cc1cc(C)c(CNC(=O)c2cncnc2C)c(=O)[nH]1`, for which the “% Inhibition” value was -11% and the Z score worked out at 1.68.
For `COC1C2CC3CN(C(=O)NCCc4cscn4)C1C3C2` (centres undefined), the “% Inhibition” value is reported as 4% and the Z score is -0.58.
Regarding `CCc1nc(CN2CCCC[C@H]2c2nnc(C3CCC3)o2)cs1`, the “% Inhibition” value is given as -11% and the Z score amounted to 2.02.
For the molecule `COc1ccc(CN(CCC2(Cc3ccccc3)CC(C)N(C)CC2C)C(C)=O)cc1OC` (centres undefined), the “% Inhibition” value is -5% and the Z score turned out to be 0.58.
As for `COc1ccc(-c2ccc(=O)[nH]n2)cc1S(=O)(=O)N1CCN(c2cccc(Cl)c2)CC1`, the “% Inhibition” value is listed as -20% and the Z score stood at 2.65.
As to `Cc1cccc(-c2ccc(C(=O)NC[C@H](C)c3ccccc3)c(N3CCC(O)CC3)n2)c1`, the “% Inhibition” value was -7% and the Z score was 1.13.
Take `Cc1nc(CN(C)CCc2scnc2C)c[nH]1`: the “% Inhibition” value amounted to 2% and the Z score is given as -0.31.
`Cc1cc(-c2nnc(-c3ccccc3)o2)c(C)n1CC(=O)NCc1ccccc1F`: the “% Inhibition” value was -17% and the Z score is given as 3.27.
Consider `CN(C)C(=O)C1CCCC(NC(=O)NC(Cc2ccccc2)c2ncco2)C1` (centres undefined), for which the “% Inhibition” value was 11% and the Z score is recorded as -1.44.
Consider `Cc1cnc(CNC(=O)c2cccc(S(=O)(=O)N3CCC3)c2)cn1`, for which the “% Inhibition” value was determined as 1% and the Z score was -0.16.
On the same counts, the results for `CN(C)Cc1ccc([C@@H]2CCCN2C2CCN(C(=O)c3cccs3)CC2)cc1` are -8% and 1.17.
As to `CCCn1cnnc1CNS(=O)(=O)c1ccc(-c2c(C)noc2C)s1`, the “% Inhibition” value amounted to 1% and the Z score is -0.16.

Values taken from ChEMBL document CHEMBL4888484, “Replenishing the malaria drug discovery pipeline: Screening and hit evaluation of the MMV Hit Generation Library 1 (HGL1) against asexual blood stage Plasmodium falciparum ,using a nano luciferase reporter read-out” (2022).
